To fix the notation:
B1: LC3A_free_8_2538 (protein)
chain: MKEELRKKASEIIDETIEKVEEAGKKLGLDRLDILDLELLLGEALIEIHELDTESIEDVKADVEESLNEAIKLAKELSPEIAKIVEEAKKKVLELLDEME
B2: LC3A_3_1708 (protein)
chain: GEEILKEAKEILEKQGRSEETKKAVLEAIKALLEKGYYEAAKTFVELLKEAENLSDEIVKDFAEDVKAFVESGDKSEEEVIEFIKEEYETAKNEQEIIEL
B3: LC3A_3_1882 (protein)
chain: MEERVKKTIELLKKAGASEETIKAFEETAKLLKERGYEKALETLIEEVEKLKDLSDELLLDFLKEVLKVVKEEDLNEEELIKRIKEIARLTRNEGEIEEL
B4: LC3A_28_1249 (protein)
chain: MEVEKQIEEAKKKVEEAVKKGEEALVTLTVTKDSNEEDVDKIIEAMYEIAELGKDLPSLTIIVDVEKGVPEKHINKLADAGEEIEEKYPNVTVIIALEEE
B5: LC3A_free_46_2299 (protein)
chain: YEGNIDVFIDGLTKEQAEELAKEIREKAKEIAEKYGVELEIDVEIEKNEDGTYSLNINITLRHEDKEVLEKAASEIIDEIDRLASKYNAASIISLEFKEI
B6: LC3A_28_958 (protein)
chain: SALEEELEKALKEAKEAAKKGEPAVITIKVPGDANEEDIEKVIKALYEIAEILKDIKGAAIIVDVDGKVKQEHIDKIADAAEEIEKKYPNVTVILALDEE
B7: LC3A_free_0_2123 (protein)
chain: MLMVVELLIILDPSTSEEKAEKFEKKLKEEAEKLGEKYGAEVEFEVSKVDGSTVITITLRKEGMSLDEALEIADELSDAAEKIAKEEGLDVTIYESVYRE
B8: LC3A_147_400 (protein)
chain: ALVEVDIDVLTNGDEEVIEELVEALRETAEALGARVEVEVELEREEGEIYARIRLRLETSDDPEEIQRLEDALLDTIDEWLEKNKDKVLGALISVSVERR
B9: LC3A_45_1988 (protein)
chain: MYEAVVSLLVPRELAEEALRVVKEAARELEAEYGPDLKVNWERLEETYEATRDEEEVFLEVEITHPDKDVALDAAVELEDRVRERLGDRVASIISYKEVP
B10: LC3A_3_1695 (protein)
chain: MEEVVKETLEVAKKNGWSEETLKALEELLKLLKERGYLEAIKKLLEKLKELKDASSEDMKWMFEELKYKVENENLNEEEITKEIEEEAEVIKKAKEIEEL
B11: LC3A_free_46_2419 (protein)
chain: MTLEIDIDVLAKTEETARAVAERLTATLRAIAERLGVEVEIEVRIEKLEDGTYYLEIRATFTGVTPEQAQQIEDEVVDKVEQLEEEYPEILGSIISSELE
B12: LC3A_132_308 (protein)
chain: GEELAKKLIEIAKEALRLVKEDDSKEEEVLELLREAKELMEKLAKEASPELAAKTFEEVEEILIEISRLAAKKGWDEVSDEAFALAAEAAQLKSDAKKKL
B13: LC3A_28_1322 (protein)
chain: SRVEEELARAEAAADAAAARGEDILLEVEISGDTTLEEAERLMERLEEIAARYAPERKVSIVINLDGDVKQEVIDLIAERAEEIEERYPNVTVILALDEE
B14: LC3A_132_284 (protein)
chain: DKELKEKRIKKVKEIAEKAKKAADDPEKTKKLLEEMKKYLEEVEKTESPEVQAAVFDEAAKEYDKLADLLDSKGKEDLALEADSLSIEAASRSIRAEKKI
B15: LC3A_28_1268 (protein)
chain: SAIDKAIAAFKAQAEAALAAGEPALLELEVSGKATEADVDKINATLKAEAARLADIPGTAILISIDSKLKEENRNKLIDTAEEIEAAQPNITVIIAIEDE
B16: LC3A_28_639 (protein)
chain: MTIEEEIKKALEEAKKAAENGESKVITLKIPGTSNQEDIDKVIETLEKIAEILKDLPSTSIIIDVDGNVPQENIDKLADKAEEIEKKYPNVTVIIALEEK
B17: LC3A_55_2007 (protein)
chain: MEVFIFITENAETGEILALEVEVDSDPERLLEALRAAGEELAAELFRLANGRRLDEEEMAEIKARYSPEEVRAAVEALIAVLESLPDVKVSVLIELEEEE
B18: LC3A_3_1530 (protein)
chain: MEERIKETLERLREAGASEETLEAFRKAAELLKEKGYEKALETLIEEADKLLDVPDELLLDFFEEVLELIETSDLSEEELVEEIKELARITLNESEIIEL
B19: LC3A_59_2030 (protein)
chain: AARIEAYVAALRANKDDPEAMARVILDALEEFRDDPAALAALRAALQATLVELGLLSPELAAELLAEAEAIVAALEDREEALAAVLSELRVALAEEEIEE
B20: LC3A_3_1453 (protein)
chain: MEELREELLKILKEQGMSEETIEAALELVDELEKKGYLEAIKTLIEELKKLKNVSSEIMLAMFEELLEIVKTKDLSEEEVIEEIKRLAAAAKAEQEIIEL
B21: LC3A_3_1886 (protein)
chain: MEEEIKETIELLKEKGASEETIEAFKKVIELLKKRGYEEALKELIEEVKELADLPDELLLDFLKDVLETLETEDLDEEELIKKIKEIARLTRNEAEIEEL
B22: LC3A_28_1227 (protein)
chain: AAVEAQIAAARAELAAAAAAGEEATITVTITGSTTVEDVKTLMAALRELVEEYADLPRISIIIDLSGSVSQEVIDTAADGGEEIEEEFPNVTVIIALDEE
B23: LC3A_3_1877 (protein)
chain: MEERVEETVKELKEAGKSEETIEKFLEAVELLKERGWEKAAETLIEEVRKLISAPNEIVLDFLEEVLETIEEEDLSEEELIERIKELARLALNESEIIEL
B24: LC3A_28_857 (protein)
chain: SETERSIEEARKRLEEAVANKEPVLITIRVTEDVTEEEVDRVIETIELAAEASKEVPELHVLVDFDGDIDPEHQKRIVDAGEEATKRNPNLTVIFALDEE
B25: LC3A_28_973 (protein)
chain: SELEKELEKALKEAKEAAEKKEPKVITIKVKGTTNEEDTEKIIEKLEEIAEILKDVKGSAIIIDVERGVKQEHIDKLADKAEEIEEKYPNITVIIALEEE
B26: LC3A_132_290 (protein)
chain: QQEKYEKLTKEANALVEEAKANIDDEAKVLALLEKIKALMEEAVKELSPELLAKFFEELADKLEALAKEFDAAGKEDLALLADSLAIEAASLALRAKEQI
B27: LC3A_3_1611 (protein)
chain: MEELIERELERLREAGFSPEVLEEARKVLEALAEKGYRRAIEKLTEELLKLKDVDPELVIEALREILRIVTEEDLSEEEVIEEIEREFRVVRLESEIIEL
B28: LC3A_free_46_2379 (protein)
chain: YKIEIDIYFSAMDKETAEKIAEEIKKAAEEISKKTGVKIEVKVEIITDEEGETWLEVEVTIEHEDEEKALEAATELIDEFEKIAKEAGVSLIISVEKIKE
B29: LC3A_3_1690 (protein)
chain: MDELVKEVLEELKKIGADPETLKAAEKLLKKLKEKGYENAIKTLLEELKKLKNADSEILKAMFEDILYEVENKNLSEEEIVELIKEEARIAKNEQEIIEL

Over roughly 2,300 sequences, “median log2 fold change of GCK-ALFA target abundance (FLAG IP / Myc IP barcode read proportion)” has its median near 0.095; the lowest 2% begin near -0.47. This is one part of the list.

The target in the experiment is MAP1LC3A, Q9H492. Kind of experiment: median log2 fold change of GCK-ALFA target abundance (FLAG IP / Myc IP barcode read proportion) (log2 ratio); each designed protein is fused to an ALFA-tag nanobody in HEK293 cells to bring the named protein to FLAG-tagged glucokinase (GCK); Myc marks an untargeted standard; higher = target protein stabilised (more abundant). The settings on record: target protein: 3xFLAG-MCP-GCK-ALFA reporter; HEK293 landing pad (RPLP). Summed up: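 An ALFA-nanobody-fused binder library was recombined into HEK293 landing-pad cells and induced with 2 μg mL^−1 doxycycline. Cells were transfected with a plasmid expressing a FLAG-tagged target and a Myc-tagged standard. After 48 h, lysates underwent anti-FLAG and anti-Myc immunoprecipitation, and circular RNA barcodes were reverse transcribed, amplified and sequenced. Target abundance is the per-binder median log2 ratio of FLAG to Myc barcode read proportions. Barcodes needed ≥10^−7 proportion in both replicates, binders ≥3 barcodes per replicate, and a 10^−6 pseudocount was added; the two replicates were pooled.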
B1: the “median log2 fold change” value worked out at 0.0891.
Take B2: the “median log2 fold change” value amounted to 0.187.
Take B3: the “median log2 fold change” value is 0.45.
Take B4: the “median log2 fold change” value amounted to 0.172.
As to B5, the “median log2 fold change” value is 0.137.
In the case of B6, the “median log2 fold change” value was -0.00119.
With B7, the “median log2 fold change” value is -0.348.
With B8, the “median log2 fold change” value is -0.235.
Under B9 stands 0.0685; under B10, 0.503; under B11, 0.113.
On to B12, for which the “median log2 fold change” value came to 0.14.
Under B13 stands 0.192; under B14, 0.18.
Then B15, with -0.216; and B16, with 0.024.
Under B17 stands 0.119; under B18, -0.145; under B19, 0.27.
As to B20, the “median log2 fold change” value turned out to be 0.265.
Turning to B21, the “median log2 fold change” value is 0.217.
Consider B22, for which the “median log2 fold change” value stood at 0.121.
B23: the “median log2 fold change” value is -0.0211.
B24: the “median log2 fold change” value is -0.0247.
Consider B25, for which the “median log2 fold change” value turned out to be 0.202.
With B26, the “median log2 fold change” value came to 0.0704.
With B27, the “median log2 fold change” value amounted to 0.132.
Consider B28, for which the “median log2 fold change” value is -0.121.
Regarding B29, the “median log2 fold change” value stood at 0.0946.

(Values after the supplement of paper PMC12632987.)
